# Results published in article PMC4336329 (PLoS ONE, 2015).
# In all, about 310,000 compounds went through this assay and about 14,000 (4.5%) showed an effect of 50% or more. Effects have a minus sign here. Some of the results follow.
# Molecular target: human ether-à-go-go-related gene (hERG) potassium channel (human, UniProt Q12809)
# Test: primary screen, population patch clamp on CHO cells stably expressing hERG
# 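Further: peak tail current of the secondary pulse compared with the same well before compound.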
# Chain of human ether-à-go-go-related gene (hERG) potassium channel (Q12809 whole entry, looked up): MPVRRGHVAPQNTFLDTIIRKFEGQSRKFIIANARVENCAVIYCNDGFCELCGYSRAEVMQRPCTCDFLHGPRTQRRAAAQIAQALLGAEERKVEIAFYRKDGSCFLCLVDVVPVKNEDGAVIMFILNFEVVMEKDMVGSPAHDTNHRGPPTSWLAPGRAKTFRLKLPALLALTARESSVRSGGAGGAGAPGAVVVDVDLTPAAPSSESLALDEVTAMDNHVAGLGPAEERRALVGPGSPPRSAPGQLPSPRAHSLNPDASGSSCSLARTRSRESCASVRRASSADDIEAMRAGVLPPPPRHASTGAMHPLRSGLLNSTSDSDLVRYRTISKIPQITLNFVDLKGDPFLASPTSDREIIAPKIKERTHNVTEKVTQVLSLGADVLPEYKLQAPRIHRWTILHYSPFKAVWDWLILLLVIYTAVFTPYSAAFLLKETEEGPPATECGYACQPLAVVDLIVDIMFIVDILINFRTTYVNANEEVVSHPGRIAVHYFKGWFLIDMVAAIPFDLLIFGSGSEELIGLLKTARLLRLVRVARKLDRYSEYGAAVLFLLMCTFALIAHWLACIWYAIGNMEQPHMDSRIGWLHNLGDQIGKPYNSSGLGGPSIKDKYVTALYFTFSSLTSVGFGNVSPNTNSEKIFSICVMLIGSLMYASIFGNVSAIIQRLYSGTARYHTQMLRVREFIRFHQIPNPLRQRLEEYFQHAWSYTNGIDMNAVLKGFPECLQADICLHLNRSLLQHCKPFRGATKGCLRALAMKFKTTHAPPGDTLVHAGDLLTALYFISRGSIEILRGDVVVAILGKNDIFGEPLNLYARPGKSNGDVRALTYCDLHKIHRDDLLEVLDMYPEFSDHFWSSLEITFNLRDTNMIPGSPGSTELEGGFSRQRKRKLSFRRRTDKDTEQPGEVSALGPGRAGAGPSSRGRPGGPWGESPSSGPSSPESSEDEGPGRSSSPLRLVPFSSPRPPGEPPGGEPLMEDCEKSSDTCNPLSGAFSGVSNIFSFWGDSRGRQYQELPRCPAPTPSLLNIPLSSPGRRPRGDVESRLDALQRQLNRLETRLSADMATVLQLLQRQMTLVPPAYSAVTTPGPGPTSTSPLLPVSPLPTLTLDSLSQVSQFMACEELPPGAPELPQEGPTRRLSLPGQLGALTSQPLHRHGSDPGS
row,Compound,"hERG current change (%, negative = inhibition) at 10uM [%]"
1,O=C(CCCn1c(SCC(=O)c2ccc(O)c(O)c2)nc2ccccc2c1=O)NCC1CCCO1 (stereo not shown),6.99
2,CC(=O)c1c(C)[nH]c(C(=O)COC(=O)c2cccc(S(=O)(=O)N(C)c3ccccc3)c2)c1C,14.6
3,S=c1[nH]nc(CSCc2ccccc2Cl)n1-c1ccccc1,0.868
4,Cc1csc2nc(COC(=O)CNC(=O)c3ccc(Cl)cc3)cc(=O)n12,-26.4
5,COc1ccc(-c2csc(NC(=O)CN3C(=O)NC4(CCCC4)C3=O)n2)c(OC)c1,-10.9
6,O=C(O)c1ccccc1NC(=O)N1C[C@H]2C[C@@H](C1)c1cccc(=O)n1C2,3.86
7,CCN(Cc1cc(=O)[nH]c2ccccc12)C(=O)c1ccc(C)cc1,-2.45
8,Cc1cccc(NCc2ccc(O)c3ncccc23)c1,18.9
9,O=C1CCC(C(=O)OC(C(=O)Nc2cc(Cl)cc(Cl)c2)c2ccccc2)=NN1 (stereo not shown),14.8
10,COc1cccc(NC(=O)C2CCCCC2)c1,-1.23
11,O=C(Nc1ccc(CN2CCOCC2)cc1)c1ccc(Br)cc1,3.54
12,Cc1ccc(S(=O)(=O)/C(C#N)=C/c2c(N3CCN(C)CC3)nc3ccccn3c2=O)cc1,-59.1
13,O=C(NCCc1ccccc1)c1nnc(CS(=O)(=O)c2ccccc2)o1,-29.3
14,Cc1cccc(C)c1NC(=O)CNc1ccccc1,5.02
15,CCC(C)NC(=O)c1cnc2n(c1=O)CCS2 (stereo not shown),12.2
16,CCOC(=O)NC(=O)c1cn(Nc2ccccc2)c(=O)[nH]c1=O,12.9
17,O=c1c2ccccc2nnn1CCN1CCOCC1,13.1
18,CCOC(=O)CNNC(=O)Nc1ccc(Cl)c(Cl)c1,8.36
19,CN(C(=O)c1ccc2ccccc2c1)c1ccccn1,10.7
20,Cl.O=C(O)CNc1nc(-c2ccccc2)nc2ccccc12,20.4
21,CC1(c2ccccc2)NC(=O)N(CC(=O)N2CCN(S(=O)(=O)c3cccs3)CC2)C1=O (stereo not shown),1.27
22,O=[N+]([O-])c1ccccc1OC/C(=N\O)c1ccccc1,2.28
23,COc1cccc(/C(C)=N/Nc2ccc(S(=O)(=O)N3CCCCC3)cn2)c1,-16.1
24,COc1ccc(C2C3=C(CCCC3=O)N(CC(=O)O)C3=C2C(=O)CCC3)cc1,17.2
25,O=C(Cc1cccs1)NCc1ccc(Cl)cc1Cl,5.57
26,O=C(COC(=O)c1ccccc1NCCO)NNC(=O)c1cccs1,-3.59
27,NC(=O)c1ccc(-n2nnnc2SCc2ccc(F)cc2)cc1,-6.81
28,Cc1cc(=O)[nH]c(SCC(=O)Nc2cccc3ccccc23)c1C#N,-5.68

row,Compound,"hERG current change (%, negative = inhibition) at 10uM [%]"
1,O=C(c1ccc(-c2ccccc2)cc1)N1CCN(c2ncccn2)CC1,-5.92
2,O=C(CSc1nnnn1-c1cccc(C(=O)O)c1)NC(c1ccccc1)c1ccccc1,22.7
3,Cc1noc(COc2ccccc2OCC(N)=O)n1,8.89
4,C=CCNc1nc(Nc2ccc([N+](=O)[O-])cc2)nc(OC)n1,-14.1
5,CCc1nn(CC(=O)N2CCC(C(N)=O)CC2)c(=O)c2cc3occc3n12,9.07
6,COc1ccc([C@H]2CC(=O)C=C(c3ccccc3Oc3ccccc3)C2)cc1,4.74
7,CS(=O)(=O)O.Cn1cc(C(F)(F)F)nc1-c1ccc(OCC(O)CNCCOc2ccc(O)c(C(N)=O)c2)cc1 (stereo not shown),-7.51
8,COc1ccc(CN(C)C(=O)c2ccc(Oc3ccccc3)cc2)cc1F,-15.6
9,CCOC(=O)c1c(NC(=O)/C=C/C(=O)O)sc(C)c1-c1ccc(C)c(C)c1,-13.3
10,C/C(=C\c1cccs1)C(=O)c1c(C)cc(C)[nH]c1=O,-7.64
11,Cc1cccc(CN2C(=O)c3ccccc3Sc3ccc(C(=O)NCCN4CCOCC4)cc32)c1,-38
12,Cc1ccc(CNC(=O)Cn2ccc3cc(S(=O)(=O)N4CCCC4)ccc32)o1,0.583
13,CCOc1cc(C(=O)NCc2ccc(C)cc2)ccc1OCC(=O)N1CCOCC1,4.68
14,CCOc1ccc(N2CC(C(=O)N3CCCCC3)CC2=O)cc1 (stereo not shown),18.6
15,c1ccc(-c2ccc(-c3nc(-c4ccncc4)no3)cc2)cc1,3.02
16,CCOCCCNC(=O)c1ccc(OC2CCN(C(C)=O)CC2)c(OC)c1,14.9
17,O=C1Nc2c(c(=O)[nH]c(=O)n2-c2ccccc2)C(C(F)(F)F)(C(F)(F)F)N1,-1.37
18,O=C(CSc1nnc(-c2ccccc2O)n1Cc1ccccc1)NNC(=O)c1ccccc1O,0.52
19,CCCN=C1NC(=O)C(CC(=O)NCCc2ccccc2)S1 (stereo not shown),-0.483
20,Cc1cccc(NC(=O)N(Cc2nc3ccccc3c(=O)[nH]2)C2CCCC2)c1,3.1
21,CC1(C)CC(=O)C(CC2=C(N)CC(C)(C)CC2=O)=C(N)C1,4.6
22,COC(=O)c1cc(=O)n(Cc2ccc(F)cc2)c(=NCc2ccc(F)cc2)s1,14.6
23,Cc1ccc(N(CC(=O)NC2CCCCC2)C(=O)CNC(=O)c2ccco2)cc1C,-10.8
24,CCNC(=O)N1CCC(n2nccc2NC(=O)CCCc2ccccc2)CC1,16.5
25,O=C(Nc1cccc(F)c1)c1sc(Cl)nc1-c1ccccc1,-2.44
26,COC(=O)c1noc(C)c1-c1ccnn1C(=O)c1ccc(C)cc1,21.3
27,COc1ccc(N(CC(=O)Nc2c(C)n(C)n(-c3ccccc3)c2=O)S(=O)(=O)c2ccc(C)cc2)cc1,-29.4
